# Measured values: patent US10758569B2, “Heteroaryl disulfide compounds as allosteric effectors for increasing the oxygen-binding affinity of hemoglobin” (The General Hospital Corporation, priority 2014, dated 2020)
# Marks after values point to notes of the source that are not given here.
# Experiments:
# [1] = Solubility (Table 3); format: physicochemical; conditions: solvents (concentration where printed)
# [2] = molecular target: T1, hemoglobin (Homo sapiens, UniProt P68871+P69905); assay: Oxygen dissociation curve (ODC) of purified hemoglobin, HEMOX analyzer; format: biochemical; conditions: for P50 of purified Hb / % met Hb: hemoglobin 20 μM; for P50 of purified Hb: added compound 120 μM, no unit in table (text gives P50 in Torr); for % met Hb / n50: compound 120 μM; for n50: purified Hb 20 μM
# T1 construct: from tissue; host or cells: outdated donated human red blood cells (hemolysate supernatant, dialysed against DPBS)
# Method: The ODC of hemoglobin with Compound 1 was measured to determine the increase of oxygen binding affinity of hemoglobin (FIG. 2A). […] Incubation of hemoglobin with Compound 1 reduced the Bohr effect (the increase of the P50 of hemoglobin induced by decreasing the pH).
# [3] = system: whole blood; assay: ODC (P50) of whole blood; conditions: hemoglobin 20 μM, compound 120 μM
Solubility [1],Compound,P50 of purified Hb [2],% met Hb [2] [%],n50 [2],P50 of whole blood ([3]; no unit in table),P50 of whole blood ([3]; after 1 h @ 37° C.)
DMSO,"c1n[nH]cc1SSc1cn[nH]c1 [Compound 15, 1,2-di(1H-pyrazol-4-yl)disulfane]",15.6,1.7,2.65,,
DMSO,"C(=N\c1nnc(SSc2nnc(/N=C/c3ccccc3)s2)s1)/c1ccccc1 [Compound 12, (NE,N′E)-5,5′-disulfanediylbis(N-benzylidene-1,3,4-thiadiazol-2-amine)]",15.4,5.0,2.52,,
,"Sc1nnc(SSc2nnc(S)s2)s1 [Compound 13, 5,5′-disulfanediylbis(1,3,4-thiadiazole-2-thiol)]",4.28^d,6.6,2.36,,
DMSO,"Cc1nn(-c2ccccc2)c(C=O)c1SSc1c(C)nn(-c2ccccc2)c1C=O [Compound 16, 4,4′-disulfanediylbis(3-methyl-1-phenyl-1H-pyrazole-5-carbaldehyde)]",9.4,5.3,2.3,,
DMSO - not completely soluble,"CCOC(=O)c1sc(SSc2sc(C(=O)OCC)c(C)c2C(=O)OCC)c(C(=O)OCC)c1C [Compound 18, tetraethyl 5,5′-disulfanediylbis(3-methylthiophene-2,4-dicarboxylate)]",16.37,3.3,2.87,,
DMSO,"Clc1nsc(SSc2nc(Cl)ns2)n1 [Compound 14, 1,2-bis(3-chloro-1,2,4-thiadiazol-5-yl)disulfane]",10.2,7.5,1.75,24.65,
DMSO,"Cc1noc(C)c1SSc1c(C)noc1C [Compound 17, 1,2-bis(3,5-dimethylisoxazol-4-yl)disulfane]",5.91,5.2,2.4,,
,"c1ccc(-n2nnnc2SSc2nnnn2-c2ccccc2)cc1 [Compound 10, 1,2-bis(1-phenyl-1H-tetrazol-5-yl)disulfane]",,1.7,,29.22,
DMSO,"CC(=O)c1sc(SSc2nc(C)c(C(C)=O)s2)nc1C [Compound 11, 1,1′-(2,2′-disulfanediylbis(4-methylthiazole-5,2-diyl))diethanone]",15.01,5.4,2.3,,
"DMSO, PG (0.5M) PEG-400 (0.5M)","c1ccc2c(c1)OCC(c1nnc(SSc3nnc(C4COc5ccccc5O4)[nH]3)[nH]1)O2 (centres unmarked) [Compound 1, 1,2-bis(5-(2,3-dihydrobenzo[b][1,4]dioxin-2-yl)-4H-1,2,4-triazol-3-yl)disulfane]",4,5,2.23,6.06,
"DMSO, PBS","Nc1nnc(SSc2nnc(N)[nH]2)[nH]1 [Compound 19, 5,5′-disulfanediylbis(4H-1,2,4-triazol-3-amine)]",19,,,26.5,
"DMSO, PBS (pH 2.5, <20 mM)","c1cc(-c2nnc(SSc3nnc(-c4ccncc4)[nH]3)[nH]2)ccn1 [Compound 2, 1,2-bis(5-(pyridin-4-yl)-4H-1,2,4-triazol-3-yl)disulfane]",4.94,4.2,2.7,,10^a
